T/C data for one molecule are collected here from PubChem BioAssay AID264 (DTP/NCI, 2004).

For this assay, the system named is nude mice, LX-1 lung xenograft intrarenal, tumor weight T/C. In words: NCI In Vivo Anticancer Drug Screen. Data for tumor model Human Lung LX-1 Xenograft (intrarenal inoculation) in NU/NU Swiss (nude) mice. Particulars: endpoint: mean tumor weight change; dose: 75.0 mg/kg/injection; schedule: Q04DX003 (sc); vehicle: water; higher = larger tumour. Put shortly:
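Antitumor effect is expressed as a ratio: the mean tumor measurement of the drug-treated group relative to that of the vehicle-dosed control group.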
In general terms: A xenograft is tissue or cells of one species grown in another, often human tumour cells in immunodeficient mice.

Inconclusive results are not listed. Certain results were filed several times, with different values. The list is limited to them. There may be further records. Values given together repeat one measurement across runs, samples, wells, individuals or studies.

For the molecule `COc1cccc2c1C(=O)c1c(O)c3c(c(O)c1C2=O)CC(O)(/C(C)=N/NC(=O)CCCCC(=O)N/N=C(\C)C1(O)Cc2c(O)c4c(c(O)c2C(OC2CC(N)C(O)C(C)O2)C1)C(=O)c1c(OC)cccc1C4=O)CC3OC1CC(N)C(O)C(C)O1` (stereo unspecified), the T/C was -100 % of control and 21 % of control.
